In publication PMC4336329 (PLoS ONE, 2015):
The campaign covered roughly 310,000 compounds. About 14,000 (4.5%) showed an effect of 50% or more. Effects have a minus sign here. The list shows a part of the results.

Target: human ether-à-go-go-related gene (hERG) potassium channel (human, UniProt Q12809)
Assay: primary screen, population patch clamp on CHO cells stably expressing hERG
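Note: peak tail current of the secondary pulse compared with the same well before compound.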

Chain of human ether-à-go-go-related gene (hERG) potassium channel (Q12809 whole entry, looked up): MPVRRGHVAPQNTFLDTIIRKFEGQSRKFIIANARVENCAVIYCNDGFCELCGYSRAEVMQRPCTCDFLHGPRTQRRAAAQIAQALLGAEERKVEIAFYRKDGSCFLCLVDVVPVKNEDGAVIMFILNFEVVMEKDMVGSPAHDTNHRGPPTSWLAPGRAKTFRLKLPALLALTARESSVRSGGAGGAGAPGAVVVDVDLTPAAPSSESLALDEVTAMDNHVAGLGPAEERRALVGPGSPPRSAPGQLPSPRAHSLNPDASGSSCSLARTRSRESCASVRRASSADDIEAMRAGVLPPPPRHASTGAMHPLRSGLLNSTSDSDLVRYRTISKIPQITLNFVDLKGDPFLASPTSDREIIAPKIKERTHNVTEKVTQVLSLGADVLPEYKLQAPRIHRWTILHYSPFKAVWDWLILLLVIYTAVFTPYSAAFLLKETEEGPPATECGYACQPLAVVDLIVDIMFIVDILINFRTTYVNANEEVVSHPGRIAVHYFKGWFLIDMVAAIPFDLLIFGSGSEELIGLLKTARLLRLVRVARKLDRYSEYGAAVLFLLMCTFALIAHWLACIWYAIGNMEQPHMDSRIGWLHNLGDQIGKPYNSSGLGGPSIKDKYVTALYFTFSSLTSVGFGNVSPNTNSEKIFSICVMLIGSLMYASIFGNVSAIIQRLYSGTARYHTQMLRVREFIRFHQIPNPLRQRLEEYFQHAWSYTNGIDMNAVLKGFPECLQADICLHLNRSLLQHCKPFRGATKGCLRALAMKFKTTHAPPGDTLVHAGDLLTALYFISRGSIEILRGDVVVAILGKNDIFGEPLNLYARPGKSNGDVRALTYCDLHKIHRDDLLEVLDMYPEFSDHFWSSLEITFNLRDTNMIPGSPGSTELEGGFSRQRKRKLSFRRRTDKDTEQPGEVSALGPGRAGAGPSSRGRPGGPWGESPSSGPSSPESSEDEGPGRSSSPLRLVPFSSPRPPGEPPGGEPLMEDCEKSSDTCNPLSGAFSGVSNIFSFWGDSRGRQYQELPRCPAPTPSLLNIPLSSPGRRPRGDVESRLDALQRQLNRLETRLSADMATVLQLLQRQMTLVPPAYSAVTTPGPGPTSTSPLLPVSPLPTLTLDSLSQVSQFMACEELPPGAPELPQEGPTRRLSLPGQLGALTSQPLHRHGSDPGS

| SMILES | hERG current change (%, negative = inhibition) at 10uM [%] |
| --- | --- |
| C/C(=N\N1CCCCC1)c1ccccc1O | 18.6 |
| CC(/C=N/Nc1nc2ccccc2[nH]1)=C\c1ccccc1 | -41.8 |
| Cc1cccc(-c2nsc(SCC(=O)NCC3CCCO3)n2)c1 (stereo not drawn) | 2.13 |
| COc1ccc(NC(=O)Cc2ccccc2)cn1 | -19.5 |
| CC1=C(C(N)=O)C(c2cccnc2)n2nc(-c3cccc(Cl)c3)nc2N1 (stereo not drawn) | 5.79 |
| C=CCc1ccccc1OCC(O)CN(C(C)C)C(C)C.Cl (stereo not drawn) | -59.2 |
| O=C(CC(Nc1ccccc1)c1ccccc1)C1CC1 (stereo not drawn) | 1.87 |
| COc1ccccc1NS(=O)(=O)c1cc(NC(=O)c2sc3cc(Cl)ccc3c2Cl)ccc1C | 22.6 |
| O=C(COC(=O)c1ccccn1)c1ccc(Br)cc1 | -9.52 |
| CCC(c1nnc(SCC(=O)NC2CCCCC2)n1Cc1ccccc1)N(C)C (stereo not drawn) | -2.1 |
| Cc1nc(-c2cccc(S(=O)(=O)N3CC(C)OC(C)C3)c2)cs1 (stereo not drawn) | -6.6 |
| CCOC(=O)NN1C(=O)c2ccccc2NC1c1ccc(OC)c(OC)c1 (stereo not drawn) | 28.6 |
| CC(=O)Oc1ccc(C(=O)Nc2ccccc2C(=O)N2CCCCC2)cc1 | 8.94 |
| CC(C)(C)OC(=O)NCc1ccc(NC(=O)c2nc[nH]c2C(=O)N[C@@H](Cc2ccccc2)C(=O)OC(C)(C)C)cc1 | 4.48 |
| CCOC(=O)N1CCN(C(=O)CCCn2c(=S)[nH]c3ccccc3c2=O)CC1 | 0.159 |
| O=S(=O)(c1ccc(Br)s1)N1CCC2(CC1)OCCO2 | -0.779 |
| CCCCCCn1c(=O)c(C(=O)Nc2cnccn2)c(O)c2ccccc21 | 1.2 |
| Cc1ccc(-c2csc(N=C(N)N)n2)c(C)c1 | -4.83 |
| CN(CCNC(=O)c1cccc(N2CCCC2=O)c1)Cc1ccccc1 | -1.38 |
| CCOc1c2ccc(C(=O)NCCc3ccc(C)cc3)cc2nn1CC | -7.45 |
| Cc1cc(NC(=O)CN(C)S(=O)(=O)c2ccc(-c3ccc(=O)[nH]n3)s2)ccc1Br | 7.95 |
| CC(C)CCN1CC(C(=O)N2CCN(c3ccc(F)cc3)CC2)CC1=O (stereo not drawn) | -25.4 |
| COCCNC(=O)c1cc(Sc2nnc(C)s2)nc2ccccc12 | -18.2 |

| SMILES | hERG current change (%, negative = inhibition) at 10uM [%] |
| --- | --- |
| NC1=NS(=O)(=O)NC1c1ccc(F)cc1 (stereo not drawn) | 15 |
| O=C1NC(=Nc2ccc3ccccc3c2)S/C1=C/c1ccco1 | 11.8 |
| CC1(C)CC(CC(=O)O)(c2ccc(Cl)cc2)CCO1 (stereo not drawn) | -3.8 |
| CC(=O)NC(CC(=O)Nc1nccs1)c1ccccc1.O=C(O)C(=O)O (stereo not drawn) | 1.49 |
| Cn1cnc([N+](=O)[O-])c1Oc1cccc(O)c1 | 8.43 |
| CCOC(=O)C(CC)n1cnc2sc3c(c2c1=O)CCC3 (stereo not drawn) | 3.75 |
| COc1ccc(NCCc2ccccn2)cc1.Cl | 12.4 |
| COc1ccc(C(=O)Nc2cccc(S(C)(=O)=O)c2)cc1OC | 6.89 |
| Cc1cc(C)cc(C(=O)N2CCC(CCC(=O)NC3CC3)CC2)c1 | -2.09 |
| COc1ccc(NC2CC(=O)N(c3cc([N+](=O)[O-])ccc3C)C2=O)cc1 (stereo not drawn) | -19.9 |
| CCO[C@H]1OC(C(=O)N2CCN(Cc3ccccc3)CC2)=C[C@@H](c2coc3ccccc3c2=O)[C@@H]1CCCO | -27 |
| COc1ccc(OC)c(S(=O)(=O)N2c3ccccc3CC2C)c1 (stereo not drawn) | -0.963 |
| C/C(=N\NC(=O)c1ccn(C)n1)c1ccc(NC(=O)c2cccc(F)c2)cc1 | 8.11 |
| CCOC(=O)c1nnn(-c2nonc2N)c1COc1ccccc1 | -37.7 |
| COc1ccc(CN(Cc2cccn2C)S(=O)(=O)c2cccc(C(F)(F)F)c2)cc1 | 3.63 |
| Cc1cc(OCC(=O)OC(C)(C)C)c2c3c(c(=O)oc2c1)CCC3 | 5.64 |
| COc1cc(O)ccc1/C=N/NC(=O)c1ccc([N+](=O)[O-])cc1 | 5.84 |
| CCOC(=O)N1CCN(S(=O)(=O)c2ccc3c(c2)oc(=O)n3C)CC1 | -0.295 |
| COc1ccc(NC(C)=O)cc1NC(C)C(=O)Nc1cc(C(F)(F)F)ccc1N1CCOCC1 (stereo not drawn) | -60.1 |
| Cc1ccc(S(=O)(=O)N(C)CC(=O)N2CCN(C(=O)c3ccco3)CC2)cc1.Cl | -49.8 |
| COC(=O)CCCC1=CC2=CC(=O)C(C)(OC(=O)C3CCCC3)C(=O)C2=CO1 (stereo not drawn) | 8.82 |
| O=C(CN1C(=O)/C(=C/c2ccccc2F)Sc2ccccc21)N1CCN(c2ccccn2)CC1 | 13.3 |
| O=S(=O)(c1ccccc1Cl)N1CCCC1c1nc(-c2ccc(Cl)cc2)no1 (stereo not drawn) | 19.9 |

| SMILES | hERG current change (%, negative = inhibition) at 10uM [%] |
| --- | --- |
| O=C(CN1C(=O)NC2(CCCCCCC2)C1=O)NCc1cccs1 | 7.8 |
| Cc1ccc(N(C(=O)NC2CCCCC2)C2=NCCCCC2)cc1 | 18.2 |
| COc1ccc(CCNC(=O)CCC(=O)c2cccs2)cc1OC | 19.3 |
| Cc1c(NC(=S)NNC(=O)CCC(=O)O)c(=O)n(-c2ccccc2)n1C | -1.62 |
| Cc1c(NC(=O)Nc2ccc(Cl)c(Cl)c2)sc(=S)n1C | -5.64 |
| Cc1ccc2c(c1)NC(=O)C(CC(=O)NCc1cccnc1)O2 (stereo not drawn) | -8.29 |
| O=c1c2ccccc2nc2n1CCS2 | -2.26 |
| Cc1c(CCC(=O)O)c(=O)oc2cc(OCc3ccccc3Br)ccc12 | 15.5 |
| COC(=O)c1cc(OC)c(OC)cc1NC(=O)c1cc(C(C)(C)C)oc1C | 5.71 |
| O=C(NC1CCN(Cc2ccccc2)CC1)c1c(Cl)cccc1Cl | -10.7 |
| Cc1cc2ncn(N)c2cc1C | -9.37 |
| Cc1ccsc1C(=O)NC1CCCN(Cc2ccc(Cl)cc2)C1 (stereo not drawn) | -56.2 |
| CCc1cccc2c1NC1(CCCC1)CC2C.Cl (stereo not drawn) | 12.2 |
| Cc1ccc2c(c1)C(c1ccncc1)=NNC(c1ccccc1)=N2 | 11.6 |
| COC(=O)c1ccc(-c2ccco2)n1Cc1ccccc1Cl | -1.48 |
| CCOC(=O)c1nnc(-c2ccc(C)cc2)nc1Oc1ccc(Cl)cc1Cl | 11 |
| O=C(CNC(c1ccccc1)c1ccccc1)Nc1ccc(F)cc1 | -11.3 |
| c1ccc(COC2CCCN(Cc3nc(-c4cnccn4)no3)C2)nc1 (stereo not drawn) | 10.5 |
| COCCN(C(=O)c1cc(OC)c(OC)c(OC)c1)c1c(N)n(Cc2ccccc2)c(=O)[nH]c1=O | 19.8 |
| Cc1nc2c(cc(Oc3ccc(S(=O)(=O)N4CCOCC4)cn3)c3ccsc32)s1 | 4.7 |
| Nc1nc(CN2CCC(Cc3ccccc3)CC2)nc(Nc2ccccc2)n1 | -82 |
| Cc1ccccc1/C=N/N1CCN(c2ccccc2)CC1 | -5.16 |
| CCNC(=O)c1ccccc1NC(=O)c1cccc(S(=O)(=O)N2CCC(C)CC2)c1 | -55.4 |

| SMILES | hERG current change (%, negative = inhibition) at 10uM [%] |
| --- | --- |
| CCOC(=O)C1(CCCc2ccccc2)CCN(C(=O)c2cc(C)nn2CC)CC1 | -57.8 |
| Cc1ccc(S(=O)(=O)Nc2cc(=O)[nH]c(SCc3ccccc3Cl)n2)cc1 | 12.4 |
| Cc1ccc(C(=O)Oc2ccc(Br)cc2C(=S)N2CCOCC2)cc1 | 18 |
| CCN(CC)CCCN(C(=O)c1ccc(F)cc1)c1nc(-c2ccc(OC)cc2)cs1 | -75.1 |
| CCC(C)(C)n1nnnc1C(c1ccc2ncccc2c1)N1CCCC(C)C1 (stereo not drawn) | -13.6 |
| CCCn1c(SCC(=O)N2CCN(c3ccc(OC)cc3)CC2)nc2c1c(=O)n(C)c(=O)n2C | -36 |
| Cc1ccc(C)c(S(=O)(=O)N2CCCOC2CNC(=O)C(=O)NC2CCCC2)c1 (stereo not drawn) | -11.4 |
| COc1ccc(NC(=O)C23CC4CC(C2)CC(c2ccccc2)(C4)C3)c(OC)c1 | 5.59 |
| COc1ccc([N+](=O)[O-])cc1NS(=O)(=O)Cc1ccccc1 | 11.1 |
| Cc1ccc(NC(=S)N2CCN(S(C)(=O)=O)CC2)cc1Cl | 18.5 |
| O=C(COc1ccccc1Br)Nc1ccc2c(c1)OCCCO2 | 12.8 |
| CNC(=O)Cn1c(C)cc(=O)c2cccc(C)c21 | -0.558 |
| Cc1cc(NC(=O)c2ccc(S(=O)(=O)N(C)C)cc2)n(-c2ccccn2)n1 | 0.346 |
| COCCNC(=O)CSCc1c(F)cccc1Cl | 3.73 |
| CC(C)NS(=O)(=O)c1ccc2c3c(cccc13)CC2 | 7.86 |
| CN(C(=O)c1ccccc1)C1(C)CCS(=O)(=O)C1 (stereo not drawn) | -4.82 |
| Cc1c(O)ccc(/C(Cc2ccc3ccccc3n2)=N\N)c1O | 8.89 |
| COc1ccc(C(C)=O)cc1CSc1nnc2c(Cl)cc(Cl)cn12 | -11.6 |
| c1ccc2c(CN3CCCCC3)c[nH]c2c1 | -38 |
| COc1ccc(NC(=O)C2CCCN2C(=O)Oc2ccccc2)cc1 (stereo not drawn) | 18.7 |
| CCN(CC)C(=O)CN1CCN(c2ncccn2)CC1.O=C(O)C(=O)O | 0.024 |
